# Measured values from PubChem BioAssay AID1461 (National Center for Advancing Translational Sciences (NCATS), 2008).
# About 2,300 (1%) of roughly 220,000 compounds were called active. Inconclusive results, whose numbers are uncertain, are shown with a selection of clear calls. Calls come from the whole dose curve; as a rule, active = well fitted inhibition curve with a large enough effect; inconclusive = small, poorly fitted or top-dose-only effect, or effect the other way; inactive = no such curve, though single readings can be large or run the other way. Potencies of inconclusive entries are left out as doubtful fits.
# Molecular target: Neuropeptide S receptor (Homo sapiens) (UniProt Q6W5P4)
# Test: qHTS Assay for Antagonists of the Neuropeptide S Receptor: cAMP Signal Transduction; note: nearly all actives have a fitted effect of over 50% in size
# Settings: CHO-NPSR cells, cAMP TR-FRET, antagonist mode; activity change, negative = inhibition: at 38.3 µM (top of the series) unless noted
# % is set by controls: 0 for no effect and ±100 for the full control effect; potency is the fitted concentration of half-maximal effect; tags give direction and shape of the fitted curve.
# Chain of UniProt Q6W5P4 (Q6W5P4 whole entry, looked up): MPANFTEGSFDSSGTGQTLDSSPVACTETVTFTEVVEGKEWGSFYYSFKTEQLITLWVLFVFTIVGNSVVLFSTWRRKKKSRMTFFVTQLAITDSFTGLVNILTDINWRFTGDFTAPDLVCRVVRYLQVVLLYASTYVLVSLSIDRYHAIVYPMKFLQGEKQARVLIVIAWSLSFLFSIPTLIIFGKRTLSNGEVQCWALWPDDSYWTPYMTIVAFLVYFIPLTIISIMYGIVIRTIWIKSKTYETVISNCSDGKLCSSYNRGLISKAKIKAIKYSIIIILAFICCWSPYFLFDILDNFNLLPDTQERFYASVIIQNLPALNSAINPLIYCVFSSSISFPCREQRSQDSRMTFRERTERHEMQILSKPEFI
SMILES,Potency,"activity change, negative = inhibition"
Cc1ccc(N2CCN(c3ccc(C)cc3)C2c2ccncc2)cc1,"inconclusive [inhibitor, partial curve]",–
Cc1ccc(C)c(C(=O)Cn2ncc(Cl)c(Cl)c2=O)c1,"inconclusive [inhibitor, partial curve]",–
CCn1c(CNc2ccc(Cl)cc2)nnc1SCc1ccccc1,"inconclusive [inhibitor, single point]",–
CNc1oc(-c2ccc(C)cc2)nc1P(=O)(c1ccccc1)c1ccccc1,active: 12.6 µM,–
Cc1csc2c(=O)sc(NC(=O)c3ccc(F)cc3)nc12,"inconclusive [inhibitor, single point]",–
CCC(CC)c1nnc(NC(=O)c2c(C)nn(Cc3ccccc3Cl)c2C)s1,"inconclusive [inhibitor, single point]",–
CC(=O)Cn1nnc2sc3c(c2c1=O)CCC(C(C)(C)C)C3 (stereo unspecified),inactive,–
COc1ccc(C2CC(=O)C3=C(C2)Nc2ccccc2N(C(=O)C2CC2)C3c2cccnc2)cc1OC (stereo unspecified),inactive,–
O=C(NCc1ccc(F)cc1)c1cnc2n(c1=O)CCS2,"inconclusive [inhibitor, single point]",–
COc1ccc(NC(=O)c2nc[nH]c2C(=O)N[C@@H](CC(C)C)C(=O)OC(C)(C)C)cc1,"inconclusive [inhibitor, single point]",–
Cc1nc2nc(C)c(CCC(=O)O)c(C)n2n1,"inconclusive [inhibitor, single point]",–
CCC1CCCCN1C(=O)COC(=O)c1cc2ccccc2cc1O (stereo unspecified),"inconclusive [inhibitor, single point]",–
Cc1ccccc1-n1nnnc1SCc1ncc(-c2ccccc2)o1,"inconclusive [inhibitor, full curve, poor fit]",–
CCOC(=O)c1ccc(N/N=C/c2cc(Br)cc([N+](=O)[O-])c2O)cc1,inactive,–
Oc1c(C(c2ccccn2)N2CCC(Cc3ccccc3)CC2)cc(Cl)c2cccnc12 (stereo unspecified),"inconclusive [inhibitor, single point]",–
CC(=O)c1cccc(NC=C2C(=O)OC3(CCCCC3)OC2=O)c1,"inconclusive [inhibitor, single point]",–
CCC1(C(=O)c2ccccc2)C2c3cc(Br)ccc3OC(=O)C21C(=O)N1CCOCC1 (stereo unspecified),"inconclusive [inhibitor, single point]",–
S=c1[nH]nc(-c2cccnc2)o1,inactive,–
CC(NCc1ccc(-c2ccccc2)cc1)C(O)c1ccccc1 (stereo unspecified),"inconclusive [inhibitor, single point]",–
COc1ccc(C(=O)C2CCCN(Cc3c[nH]c4ccccc34)C2)c(OC)c1 (stereo unspecified),inactive,–
COc1ccc(N2CCN(C(=O)CSc3nc4[nH]ncc4c(=O)n3-c3ccc(Br)cc3)CC2)cc1,"inconclusive [inhibitor, full curve, poor fit]",–
CN(C)C(=S)NC(=O)C12CC3(C)CC(C)(CC(C)(C3)C1)C2,inactive,–
Cc1ccc(NC(=O)NC(=O)CSc2nnc(-c3ccc(Cl)cc3Cl)n2N)c(C)c1,"inconclusive [inhibitor, single point]",–
CCCn1cc(CN2CCC(N3CCC(C(=O)N4CCOCC4)CC3)CC2)c(C)n1,"inconclusive [activator, single point]",–

SMILES,Potency,"activity change, negative = inhibition"
O=C(CCCc1c[nH]c2ccccc12)N1CCN(S(=O)(=O)c2cccs2)CC1,inactive,–
CCc1ccc(/C=C(/C#N)C(N)=S)s1,inactive,–
O=C/C(=C\Nc1ccc(Cl)cn1)c1nc2ccccc2o1,"inconclusive [inhibitor, single point]",–
O=[N+]([O-])/C=C/c1cc2ccccc2[nH]1,"inconclusive [activator, partial curve]",–
CC(=O)NC(=S)Nc1ccc(S(=O)(=O)N(C)Cc2ccccc2)cc1,"inconclusive [inhibitor, single point]",–
COC(=O)Cn1cnc2c(C#N)c3n(c2c1=O)CCCC3,"inconclusive [activator, single point]",–
CCCN1C=CC(=C/C=C(\C#N)C(=O)OCC)C=C1,"inconclusive [inhibitor, partial curve]",–
COc1cc(OC)nc(-n2ncc(Br)c(Br)c2=O)n1,active: 6.31 µM,–
CCOC(=O)CN1C(=O)C(Sc2n[nH]c(-c3cccc(C)c3)n2)CCc2ccccc21 (stereo unspecified),"inconclusive [inhibitor, single point]",–
CCOC(=O)c1c(NC(=O)c2ccc(Cl)s2)sc(C)c1C,inactive,–
COc1ccccc1C1C2=C(COC2=O)Nc2cc3c(cc21)OCO3 (stereo unspecified),"inconclusive [activator, full curve]",–
CCc1ccccc1N(C)C(=O)CCc1nc(-c2ccc(C)cc2)no1,"inconclusive [inhibitor, single point]",–
Cn1cccc1CC(=O)N/N=C\c1c2ccccc2cc2ccccc12,"inconclusive [inhibitor, partial curve, poor fit]",–
O=C(C1=C[C@H](C2CCCCC2)C[C@H](OCc2ccc(CO)cc2)O1)N1CCN(Cc2ccccc2)CC1,"inconclusive [activator, partial curve]",–
O=S(=O)(N/N=C/c1cccc(OC2CSC2)c1)c1ccccc1,inactive,–
Cc1cc(NC(=O)CSc2nc3ccsc3c(=O)n2CCCC(=O)NCCc2ccccc2)no1,"inconclusive [activator, partial curve]",–
COC(=O)CN(C#N)c1nc(N(C)C)nc(N(C)C)n1,inactive,–
Cc1nc(NC(=O)c2ccc(F)cc2)sc1C(=O)Nc1ccc2c(c1)CCC2,inactive,–
CCOc1ccc(OCC)c(-c2c(=O)n(OCc3ccccc3Br)c3ccccc3[n+]2[O-])c1,"inconclusive [inhibitor, partial curve, poor fit]",–
COc1ccc(C(=O)N2CCN(c3nc4cc(C)ccc4cc3C#N)CC2)c(OC)c1,"inconclusive [inhibitor, partial curve, poor fit]",–
COc1cccc(NC(=O)C2CCCN2C(=O)Nc2ccccc2F)c1 (stereo unspecified),"inconclusive [activator, partial curve, poor fit]",–
CCOC(=O)/C(C#N)=C1/C=CN(C)C(C)=N1,"inconclusive [inhibitor, single point]",–
C=C(C)COc1ccc(-c2[nH]ncc2Oc2cccc(OC)c2)c(O)c1,"inconclusive [inhibitor, single point]",–
Cc1ccc(C=C2C(=O)c3ccccc3C2=O)o1,inactive,–

SMILES,Potency,"activity change, negative = inhibition"
CC(C)CN(C)c1nc(N)c(C(=O)N=C(N)N)nc1Cl,"inconclusive [activator, single point]",–
C=C(C)COc1ccc(-c2[nH]ncc2-c2ccccc2)c(O)c1,"inconclusive [inhibitor, single point]",–
N#CC1=C(N2CCCCC2)c2cc3c(n2C1=O)CCCC3,"inconclusive [inhibitor, partial curve]",–
CCOCCCNS(=O)(=O)c1ccc(OC)c(Cl)c1Cl,inactive,–
COc1ccc2nccc(/C=C/c3ccnc4ccc(OC)cc34)c2c1,"inconclusive [activator, single point]",–
COCc1ccc(CN2CCCC(CO)(Cc3cccc(Cl)c3)C2)o1 (stereo unspecified),inactive,–
CCCc1nc2ccc(NC(=O)NCCC(=O)OCC)cc2c(=O)n1Cc1cccc(Cl)c1,"inconclusive [inhibitor, single point]",–
Cc1ccc(C(=O)Oc2csc(=S)n2C(=O)c2ccc(C)cc2)cc1,inactive,–
CC1CCCCC1NCC#CCOc1ccc(Cl)cc1 (stereo unspecified),inactive,–
CC(C)Oc1nnnn1-c1ccccc1,"inconclusive [inhibitor, partial curve, poor fit]",–
O=C(CCc1c[nH]c2ccccc12)NCc1ccc2c(c1)OCO2,"inconclusive [inhibitor, single point]",–
Cc1ccc(-n2cnc(N)c2C(=O)c2cccc([N+](=O)[O-])c2)cc1,"inconclusive [inhibitor, single point]",–
COc1ccc(NC(=O)c2oc3ccc(S(=O)(=O)N4CCC5(CC4)OCCO5)cc3c2C)cc1,"inconclusive [inhibitor, single point]",–
O=C(NNC(=O)c1cc(-c2ccccc2)nc2ccccc12)Nc1cccc(Cl)c1,"inconclusive [inhibitor, partial curve]",–
Cc1ccc2ccc(C(Nc3cccc(C(F)(F)F)c3)c3cccnc3)c(O)c2n1 (stereo unspecified),inactive,–
O=C(c1cc(-c2ccco2)nn1-c1cccc(Cl)c1)N1CCCCC1,"inconclusive [inhibitor, single point]",–
COc1ccc(S(=O)(=O)N2CCN(C(=O)c3c(C)nn(-c4ccccc4)c3Cl)CC2)cc1,inactive,–
O=C(c1ccc2c(c1)OCCO2)N1CCCCC1,inactive,–
CCN(CC)c1ccc(C2C3CCCCC3(O)CCN2CC(=O)N2CCCCC2)cc1 (stereo unspecified),"inconclusive [inhibitor, full curve, poor fit]",–
COc1ccccc1CNC(=O)c1cccs1,inactive,–
OCCCN1CCN(CCOc2ccccc2-c2ccccc2)CC1,inactive,–
c1ccc(C2[C@H]3CN(Cc4cccnc4)[C@H](c4ccccc4)C34CC2(c2cccnc2)C4)cc1 (stereo partly specified),"inconclusive [inhibitor, single point]",–
CCCc1cc(=O)oc2c(CN3CCCC3)c(O)c(Cl)cc12,–,inactive: 7.06% [at 7.67 µM]
